Results: the supplement of paper PMC3334620
In all, about 33,000 sequences were measured (“E-score (-0.5 to 0.5)”: median about -0.021, highest 2% from about 0.32 on). The list shows a part of the results.

These sequences were tested against T1, Zap1 (UniProt P47043) (assay: PBM E-score (8-mer binding enrichment) (E-score (-0.5 to 0.5)); higher = stronger / more preferred TF binding; most listed sequences are background and not binding sites). Conditions: protein concentration: 200 nM; construct: GST-full length.
T1 sequence: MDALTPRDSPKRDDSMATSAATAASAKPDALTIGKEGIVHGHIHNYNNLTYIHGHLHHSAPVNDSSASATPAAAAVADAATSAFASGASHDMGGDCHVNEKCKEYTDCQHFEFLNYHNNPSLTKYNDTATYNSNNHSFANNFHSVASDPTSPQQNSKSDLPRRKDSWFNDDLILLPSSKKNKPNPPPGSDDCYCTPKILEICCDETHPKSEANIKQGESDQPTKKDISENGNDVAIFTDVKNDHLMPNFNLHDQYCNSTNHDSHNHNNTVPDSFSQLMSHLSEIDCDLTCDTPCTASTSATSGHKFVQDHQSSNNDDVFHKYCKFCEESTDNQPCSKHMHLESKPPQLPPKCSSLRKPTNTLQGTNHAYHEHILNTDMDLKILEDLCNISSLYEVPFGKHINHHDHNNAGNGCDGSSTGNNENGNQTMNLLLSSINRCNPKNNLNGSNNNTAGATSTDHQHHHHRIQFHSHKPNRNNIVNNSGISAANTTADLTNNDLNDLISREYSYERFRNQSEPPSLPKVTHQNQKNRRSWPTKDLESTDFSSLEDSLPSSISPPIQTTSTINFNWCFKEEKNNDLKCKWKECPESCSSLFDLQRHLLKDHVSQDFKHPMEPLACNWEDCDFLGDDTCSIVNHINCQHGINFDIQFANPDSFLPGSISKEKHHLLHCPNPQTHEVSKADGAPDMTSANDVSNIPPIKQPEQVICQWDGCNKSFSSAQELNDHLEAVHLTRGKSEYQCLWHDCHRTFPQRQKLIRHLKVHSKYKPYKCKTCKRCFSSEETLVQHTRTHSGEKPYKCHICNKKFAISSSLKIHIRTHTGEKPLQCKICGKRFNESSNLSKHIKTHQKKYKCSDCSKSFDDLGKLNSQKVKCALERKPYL
Procedure, shortened: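 Using PURExpress in vitro transcription/translation, GST-tagged yeast transcription factors were made in full-length or DNA-binding-domain form. These were applied at about 100-200 nM to double-stranded universal all-10-mer Agilent arrays, and bound protein was detected with fluorescent anti-GST. Scans were normalised with masliner before the Universal PBM Analysis Suite assigned E-scores to ungapped eight-base words pooled with their reverse complements.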
GTAGTAAC was tested, and the “PBM E-score” value was 0.127. For CCCTATAG, the “PBM E-score” value was 0.271. With CGTTTACC the “PBM E-score” value was 0.00669. For GATCCAAC, the “PBM E-score” value was 0.013. With CTGAGCAG the “PBM E-score” value was 0.0476. CTTACAAC was tested, and the “PBM E-score” value was 0.097. CAGTAGAA was tested, and the “PBM E-score” value was 0.0546. In the case of AACTTCCT, the “PBM E-score” value is reported as 0.0316. In the case of CGGGTGAC, the “PBM E-score” value is reported as 0.167. With GCGACGCC the “PBM E-score” value was -0.162. GCCGTCAC was tested, and the “PBM E-score” value was 0.0781. With AGAATATG the “PBM E-score” value was 0.0927. With CTATTCTA the “PBM E-score” value was 0.119. For CACAAGGA, the “PBM E-score” value was 0.168. With AATTGCGG the “PBM E-score” value was 0.0477. In the case of ATAAAGCC, the “PBM E-score” value is reported as -0.202. With GTTCGAGA the “PBM E-score” value was -0.0717. With ACTGGGGG the “PBM E-score” value was -0.305. With CTTCATCA the “PBM E-score” value was 0.088. For CGATAGGC, the “PBM E-score” value was -0.213. In the case of GGAGGAAA, the “PBM E-score” value is reported as -0.116. With GTGCTGCA the “PBM E-score” value was -0.0788. For GCGTGCGA, the “PBM E-score” value was -0.0265. With GCTGACGA the “PBM E-score” value was -0.0337. CGTGAAAA was tested, and the “PBM E-score” value was 0.0967. With CCCGGAGA the “PBM E-score” value was 0.0528. With ATCAGGGC the “PBM E-score” value was -0.249. For CAAGAATG, the “PBM E-score” value was -0.0459. With GATAACAC the “PBM E-score” value was -0.00284. For AGGTATCC, the “PBM E-score” value was 0.248. In the case of ACATACAC, the “PBM E-score” value is reported as 0.0555. With ATGGTGAC the “PBM E-score” value was 0.0548. With AGGGACTA the “PBM E-score” value was -0.104. For CAGAACTC, the “PBM E-score” value was -0.0409. For AATGATGG, the “PBM E-score” value was -0.00312. In the case of AATTCCCG, the “PBM E-score” value is reported as -0.00639. ACCTCGCC was tested, and the “PBM E-score” value was -0.0469. For AAAACTGG, the “PBM E-score” value was 0.0376. For ACAGCACT, the “PBM E-score” value was -0.0476. In the case of CGAAGCAC, the “PBM E-score” value is reported as -0.152. TATACATA was tested, and the “PBM E-score” value was 0.106. CGGGACAC was tested, and the “PBM E-score” value was -0.105. With CAATGTTA the “PBM E-score” value was -0.0616. In the case of CGTCGTTA, the “PBM E-score” value is reported as -0.0653. For AACTAATT, the “PBM E-score” value was 0.181. GCTTTCTA was tested, and the “PBM E-score” value was 0.112. In the case of CACACAAG, the “PBM E-score” value is reported as 0.186. With GGCGACCA the “PBM E-score” value was -0.0685. For GTAGAACA, the “PBM E-score” value was -0.135. GGCTGTTA was tested, and the “PBM E-score” value was 0.0308. In the case of ACAGCATG, the “PBM E-score” value is reported as -0.0779. AATAGCCT was tested, and the “PBM E-score” value was -0.161. AGGATATA was tested, and the “PBM E-score” value was 0.0935. With GCTTTAGA the “PBM E-score” value was -0.115. CCAGTGTA was tested, and the “PBM E-score” value was -0.00071. TAAGCTTA was tested, and the “PBM E-score” value was 0.0634. With TTCAAAAA the “PBM E-score” value was 0.255. With CAAGCAAA the “PBM E-score” value was -0.0135. CCATCTGA was tested, and the “PBM E-score” value was -0.0622. In the case of CACACATC, the “PBM E-score” value is reported as -0.272. For GTCGGACA, the “PBM E-score” value was -0.0115. In the case of TGGAGACA, the “PBM E-score” value is reported as -0.181. In the case of TCAGTTAA, the “PBM E-score” value is reported as 0.097. With ACTGCATG the “PBM E-score” value was -0.125. For ACGACTTC, the “PBM E-score” value was -0.206. For GGCGTACA, the “PBM E-score” value was -0.216. ATATTCAC was tested, and the “PBM E-score” value was -0.0786. For CCACGTCC, the “PBM E-score” value was -0.145. With CACTTATC the “PBM E-score” value was -0.00335. With CAATTTAA the “PBM E-score” value was 0.0336. In the case of ACTGGTAG, the “PBM E-score” value is reported as -0.00416. CTGGGCAA was tested, and the “PBM E-score” value was -0.11. For CAAGGGGC, the “PBM E-score” value was 0.0367. AAGACGCG was tested, and the “PBM E-score” value was -0.0611. With ACACAATG the “PBM E-score” value was 0.102. With ACATCCGA the “PBM E-score” value was -0.142. In the case of TAATGACA, the “PBM E-score” value is reported as 0.0154. With CCGCTACG the “PBM E-score” value was -0.128. CGGTTCTC was tested, and the “PBM E-score” value was -0.0391. With ACCTGTTG the “PBM E-score” value was 0.265. For GAGGCACC, the “PBM E-score” value was -0.1. For CGTGTTGC, the “PBM E-score” value was -0.0452. For CGATCGCG, the “PBM E-score” value was -0.00514. With AGTAACTG the “PBM E-score” value was -0.154. With ACGGACAA the “PBM E-score” value was 0.068. In the case of AGCAAACT, the “PBM E-score” value is reported as 0.0479. In the case of AAAATAGC, the “PBM E-score” value is reported as -0.213. In the case of ACTTTTTC, the “PBM E-score” value is reported as -0.0761. For CAGCCTCA, the “PBM E-score” value was -0.0372. With GCTCCTCC the “PBM E-score” value was -0.207. For CACCGCAA, the “PBM E-score” value was 0.304. With AGACAAAA the “PBM E-score” value was -0.00478. ATGCTGGA was tested, and the “PBM E-score” value was -0.0866. For GCAGCGGA, the “PBM E-score” value was -0.181. AAGTGACA was tested, and the “PBM E-score” value was 0.117. With GCACTCGC the “PBM E-score” value was -0.235. In the case of AACACGAC, the “PBM E-score” value is reported as 0.0766. For GGTGTTAC, the “PBM E-score” value was 0.0513. With CCACCTCA the “PBM E-score” value was 0.119. With ACTTAGCA the “PBM E-score” value was -0.059. For AATCTCAA, the “PBM E-score” value was 0.278. GAGCTTCC was tested, and the “PBM E-score” value was -0.231. CCTCCGCA was tested, and the “PBM E-score” value was -0.0881. For GGGTGTGA, the “PBM E-score” value was -0.0632. For CATCCATA, the “PBM E-score” value was 0.0171. In the case of CACAGGAA, the “PBM E-score” value is reported as -0.0488. With GCATTGAC the “PBM E-score” value was -0.124. In the case of ACAATCGG, the “PBM E-score” value is reported as 0.0205. TACCCATA was tested, and the “PBM E-score” value was 0.266.
